# Data from publication PMC4336329 (PLoS ONE, 2015).
# The whole screen tested about 310,000 compounds, of which about 2,200 (0.71%) showed an effect of 50% or more. Effects have a minus sign here. Some of the results follow. Where a SMILES comes first, the peptide text is derived from it. The star is where a group is joined. Cbz = O=C(OCc1ccccc1)*
# Target: human ether-à-go-go-related gene (hERG) potassium channel (human, UniProt Q12809)
# Experiment: primary screen, population patch clamp on CHO cells stably expressing hERG
# Sequence of human ether-à-go-go-related gene (hERG) potassium channel (Q12809 whole entry, looked up): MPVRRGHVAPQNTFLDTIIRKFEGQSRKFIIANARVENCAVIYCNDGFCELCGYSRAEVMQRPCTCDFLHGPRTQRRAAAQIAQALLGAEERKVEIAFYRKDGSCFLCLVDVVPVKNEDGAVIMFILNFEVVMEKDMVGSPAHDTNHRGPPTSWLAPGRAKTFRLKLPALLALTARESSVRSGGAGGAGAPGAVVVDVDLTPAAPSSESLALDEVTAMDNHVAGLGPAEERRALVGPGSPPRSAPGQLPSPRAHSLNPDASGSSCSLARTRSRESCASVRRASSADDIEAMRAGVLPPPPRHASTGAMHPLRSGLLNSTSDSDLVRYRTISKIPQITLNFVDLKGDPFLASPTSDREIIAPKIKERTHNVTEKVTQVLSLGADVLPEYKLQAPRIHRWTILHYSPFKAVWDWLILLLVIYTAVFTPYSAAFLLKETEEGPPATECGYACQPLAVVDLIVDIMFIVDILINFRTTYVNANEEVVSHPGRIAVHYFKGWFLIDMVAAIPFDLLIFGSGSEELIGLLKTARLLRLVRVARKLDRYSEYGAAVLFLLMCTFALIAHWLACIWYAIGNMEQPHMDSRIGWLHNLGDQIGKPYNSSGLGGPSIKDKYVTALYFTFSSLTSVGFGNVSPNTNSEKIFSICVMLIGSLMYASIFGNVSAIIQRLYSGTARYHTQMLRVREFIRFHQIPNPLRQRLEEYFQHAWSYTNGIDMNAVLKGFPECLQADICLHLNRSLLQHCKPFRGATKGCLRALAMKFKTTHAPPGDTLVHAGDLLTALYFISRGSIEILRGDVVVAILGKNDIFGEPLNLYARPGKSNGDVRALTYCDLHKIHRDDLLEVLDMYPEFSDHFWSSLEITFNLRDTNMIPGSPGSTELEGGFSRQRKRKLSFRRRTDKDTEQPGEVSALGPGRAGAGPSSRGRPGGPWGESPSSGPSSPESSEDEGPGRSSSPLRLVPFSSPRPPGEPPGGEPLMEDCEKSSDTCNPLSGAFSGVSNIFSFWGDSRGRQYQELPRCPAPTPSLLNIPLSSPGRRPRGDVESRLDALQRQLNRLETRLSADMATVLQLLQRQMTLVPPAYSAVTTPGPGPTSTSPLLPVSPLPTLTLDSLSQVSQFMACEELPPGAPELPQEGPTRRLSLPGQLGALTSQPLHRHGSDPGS
row,SMILES,"hERG current change (%, negative = inhibition) at 1uM [%]"
1,CCOCCCn1c(=S)[nH]c2cc(C(=O)NCC(OC)OC)ccc2c1=O,7.34
2,CC(=O)OCCCN1C(=O)c2ccc(Br)cc2C1=O,8.06
3,NS(=O)(=O)c1ccc2nc(NC(=O)c3ccc4ncsc4c3)sc2c1,9.12
4,COC(=O)C1=C(N)Oc2c(c(=O)oc3ccccc23)[C@]12C(=O)N(C)c1ccccc12,-0.466
5,CCc1ccc(OCc2n[nH]c(=S)n2Cc2ccccc2)cc1,11.2
6,O=CNc1ccccc1Oc1ccccc1,9.19
7,CCOC(=O)c1ccc(NC(=O)CNC(=O)C2CCCCC2)cc1,-3
8,COc1ccccc1N1CCN(C(=O)CSc2nc3ccccc3nc2N2CCCCC2)CC1,16.5
9,N#Cc1ccc(C(=O)NNC(=O)c2ccncc2)cc1,12.6
10,COc1cccc(NC(=O)CCN2CCOCC2)c1.Cl,15.1
11,COc1ccc(S(=O)(=O)N2CCCCC2)cc1NC(=O)c1cc(C)on1,16.4
12,COc1ccc(CC(=O)Nc2ccc(S(=O)(=O)N3CCCCC3)cc2)cc1OC,2.89
13,COc1cc(/C=N/NC(=O)c2cc[n+]([O-])cc2)cc(OC)c1OC,9.39
14,CCOC(=O)c1c(S(=O)(=O)N(C)C2CCCCC2)c(C)n(C)c1C,6.36
15,COc1ccc(C(CNC(=O)COc2cccc(C(F)(F)F)c2)N2CCCC2)cc1 (stereo not drawn),-2.77
16,O=C(N/N=C/C=C/c1ccccc1)c1ccccn1,7.02
17,O=C(NCCN1CCOCC1)c1ccc(Cl)c([N+](=O)[O-])c1,18.8
18,Cc1ccc(NC(=O)CS(=O)CC(=O)N(CC(=O)NC2CCCC2)c2cccc(C)c2C)cc1 (stereo not drawn),2.3
19,COC(=O)c1cccc(NS(=O)(=O)c2ccc(OC)cc2)c1C,4.43
20,O=C(CSc1n[nH]c(-c2ccccc2)n1)Nc1ncccn1,5.09
21,O=C(N/N=C/c1ccc(O)cc1O)c1ccc(NC(=O)C2CCCCC2)cc1,13.1
22,COc1ccc(OC)c(Cc2nnc(CCC(=O)NCc3ccsc3)o2)c1,-15.1

row,SMILES,"hERG current change (%, negative = inhibition) at 1uM [%]"
1,COc1cccc(C(=O)OCc2cc(=O)oc3c(C)c(C)ccc23)c1OC,3.26
2,COC(=O)c1ccc(NC(=S)NC(=O)c2cccnc2)cc1,16.5
3,CCOC(=O)C(Cc1ccc(NC(=O)/C(=C\c2ccccc2)NC(=O)c2ccccc2)cc1)N1C(=O)c2ccccc2C1=O (stereo not drawn),12.9
4,COc1ccc(CN2CCN(Cc3ccccc3OC)CC2)cc1.O=C(O)C(=O)O,14
5,O=C(NCCCN1CCOCC1)c1ccc(CS(=O)(=O)c2ccc(Br)cc2)o1,4.6
6,CCCC(=O)Nc1nc2nc(C)cc(=O)n2[nH]1,1.69
7,OCCC1CN(Cc2cnn(-c3ccc(F)cc3)c2)CCN1Cc1ccsc1 (stereo not drawn),-28
8,COc1cc(C[C@@H](CO)[C@H](CO)Cc2ccc(O)c(OC)c2)ccc1O,11
9,COc1ccc(CNC(=O)[C@@H](NC(=O)C2CCN(S(=O)(=O)c3ccc(C)cc3)CC2)C(C)C)cc1OC,11.7
10,O=C(Cn1c(SCc2ccccc2)nc2ccccc21)N1CCOCC1,9.86
11,O=C(CSc1nc2c(cnn2-c2ccccc2)c(=O)[nH]1)N1CCOCC1,3.37
12,CCC(=O)Nc1cccc(C2=NOC3(C2)C[C@@H](C(N)=O)N(C(=O)c2cc([N+](=O)[O-])cc([N+](=O)[O-])c2)C3)c1 (stereo partly drawn),14.6
13,CCN(CC)S(=O)(=O)c1cc(NC(=O)CN2C(=O)NC(C)(c3ccccc3)C2=O)ccc1C (stereo not drawn),-1.84
14,CCN1CCN(C(=O)CN(C)S(=O)(=O)c2ccc(OC)cc2)CC1,11.5
15,Cc1cc(/N=C/C=C2\N(C)c3ccccc3C2(C)C)n(CCC#N)n1,3.4
16,C=CCN1CC(=O)N2Cc3[nH]c4ccccc4c3C[C@H]2C1=O,13.9
17,CCOc1ccc2oc(C(=O)OCC(=O)NC(=O)NC)c(C)c2c1,11.6
18,Cc1cc(-c2nnc(SCC(=O)Nc3cccc(Cl)c3)n2N)n[nH]1,-40.4
19,Cc1cc(Nc2ccc(Cl)cc2)n2ncnc2n1,9.08
20,OC1(c2ccccc2)C/C(=N\n2cnnc2)C=C1c1ccccc1 (stereo not drawn),12.3
21,COc1cccc(/C=N/Nc2cc(N3CCOCC3)ncn2)c1O,11.4
22,O=C(NCc1ccccc1)c1ccc2c(c1)C(=O)N(Cc1cccnc1)C2=O,6.22

row,SMILES,"hERG current change (%, negative = inhibition) at 1uM [%]"
1,O=C(N[C@@H](Cc1ccccc1)C(=O)N[C@@H](Cc1ccccc1)C(=O)O)OCc1ccccc1 (Cbz-Phe-Phe-OH),5.51
2,Cc1ccc2c(c1)N(C(=O)CCC(=O)NC1CCN(Cc3ccccc3)CC1)CC(C)O2 (stereo not drawn),-35.1
3,O=C(Nc1nnc(-c2cccs2)o1)C1CC1,9.45
4,Cc1cccc(C(=O)OCC(=O)NCC2COc3ccccc3O2)c1 (stereo not drawn),5.23
5,Cc1cc(C)c(S(=O)(=O)c2ccccc2C)c(OCC(C)(C)C)n1,6.73
6,C=C1CCN([C@@H](CC(C)C)C(=O)NCc2ccccc2)S(=O)(=O)c2ccccc21,13
7,Cc1ccc(-n2ncc(Cl)c2C(=O)NC2CC2)cc1,7.71
8,N#C/C(=C\c1c(F)cccc1Cl)c1nn(-c2ccccc2)c(-n2cccc2)c1C#N,5.64
9,COc1cc(/C=C/C(=O)OCC(=O)NCCN2C(=O)CSC2=O)ccc1OCC#N,5.27
10,COc1ccc(NC(=O)CCNS(=O)(=O)c2ccc(C)c(C)c2)cc1OC,12.7
11,Cc1nnc(NC(=O)CCS(=O)(=O)Cc2ccccc2)s1,-33.1
12,O=c1c2c(nc3cc(-c4ccccc4)[nH]n13)CCS2,21.5
13,CCN(c1ccc(NC(=O)c2cccc(S(=O)(=O)N3CCN(C)CC3)c2)cc1)C(C)C,8.87
14,CC(C)(C)OC(=O)N[C@@H](Cc1ccccc1)c1nnc(S(=O)(=O)Cc2ccccc2)o1,5.19
15,Cn1c(=O)[nH]c2nncnc2c1=O,4.06
16,CCOC(=O)Nc1ccc2c(c1)N(C(=O)CN(CC)CC)c1ccccc1C=C2.Cl.O,-0.132
17,CCCNC(=S)N1CCC(NC(=O)C23CC4CC(CC(C4)C2)C3)CC1,12.1
18,O=S1(=O)c2cccc3cccc(c23)N1Cc1ccc(-c2nnco2)cc1,10.1
19,CC12CCC(=O)N1C(C(=O)Nc1ccc(F)cc1)CS2 (stereo not drawn),15.2
20,CC(=O)c1c(C)oc2ccc(NS(=O)(=O)c3ccc(C)cc3)cc12,14.2
21,Cc1ccc2c(c1)C1CN(C)CCC1N2C(=O)c1cccs1 (stereo not drawn),5.82
22,CC(=O)N(c1ccc(C)cc1)S(=O)(=O)c1ccc(Cl)cc1,11.2

row,SMILES,"hERG current change (%, negative = inhibition) at 1uM [%]"
1,O=c1[nH]c(SCCOc2ccccc2F)nc2ccccc12,7.08
2,CC(=O)Nc1ccc2c(c1)C(=O)N(c1cccc3ccccc13)C2=O,5.98
3,O=C(Nc1c2c(nn1-c1ccc(F)cc1)CS(=O)(=O)C2)c1ccc(S(=O)(=O)N2CCOCC2)cc1,23
4,COCCCNC(=S)N(Cc1cccnc1)Cc1ccc(OC)c(OC)c1,12.6
5,CCOc1ccc(C(C)=O)cc1CSc1nnc(-c2ccoc2C)n1N,6.64
6,CCCCc1c(O)nc2sc3cc(OC)ccc3n2c1=O,4.58
7,CN(C)S(=O)(=O)Oc1ccsc1C(=O)Nc1ccc(C(F)(F)F)cc1,6.28
8,COc1ccc(CNc2nc(-c3cccnc3)nn2S(C)(=O)=O)cc1,14.5
9,Cc1ccc(-c2cc(C(=O)NC3CCCCC3)no2)cc1,16.8
10,CC(C)(C)c1ccc(-n2ncc3c2CCCC3NC(=O)CCN2CCCCC2=O)cc1 (stereo not drawn),12
11,Cc1nn(Cc2ccccc2)c(C)c1NC(=O)CSc1nc(C2CC2)nc2c1cnn2-c1ccccc1,18.2
12,CCCCOC(=O)c1ccc(NC(=O)c2ccoc2C)cc1,7.39
13,COc1ccc(CC2=C(O)c3ccccc3C(=O)C2=O)cc1,13.5
14,Cc1ccc(S(=O)(=O)NC(=O)c2cc(C)n(-c3cc(S(=O)(=O)N4CCOCC4)ccc3N3CCCC3)c2C)cc1,-10.7
15,CNC(=S)N/N=C/c1ccc(-c2cc([N+](=O)[O-])ccc2Cl)o1,5.68
16,CCOC(=O)/C(=C/c1ccccc1)NC(=O)c1ccco1,6.98
17,COc1ccc(S(=O)(=O)N(C)C)cc1NC(=O)CCCSc1ccccc1,-5.8
18,O=C1/C(=C/c2cccs2)CCC1C1CCCC1 (stereo not drawn),14.4
19,CCOc1ccc(-c2c[n+]3c(n2-c2ccccc2)CCCCC3)cc1.[Br-],-30.6
20,Cc1ccc(NCCC(=O)c2cccs2)cc1Cl,13.2
21,CCOC(=O)Cn1c(C)nc2ccccc21,-3.72
